{"source": "the supplement of paper PMC12423691", "binders": {"B1": {"name": "ALK, Q9UM73 (protein)", "chain": "MGAIGLLWLLPLLLSTAAVGSGMGTGQRAGSPAAGPPLQPREPLSYSRLQRKSLAVDFVVPSLFRVYARDLLLPPSSSELKAGRPEARGSLALDCAPLLRLLGPAPGVSWTAGSPAPAEARTLSRVLKGGSVRKLRRAKQLVLELGEEAILEGCVGPPGEAAVGLLQFNLSELFSWWIRQGEGRLRIRLMPEKKASEVGREGRLSAAIRASQPRLLFQIFGTGHSSLESPTNMPSPSPDYFTWNLTWIMKDSFPFLSHRSRYGLECSFDFPCELEYSPPLHDLRNQSWSWRRIPSEEASQMDLLDGPGAERSKEMPRGSFLLLNTSADSKHTILSPWMRSSSEHCTLAVSVHRHLQPSGRYIAQLLPHNEAAREILLMPTPGKHGWTVLQGRIGRPDNPFRVALEYISSGNRSLSAVDFFALKNCSEGTSPGSKMALQSSFTCWNGTVLQLGQACDFHQDCAQGEDESQMCRKLPVGFYCNFEDGFCGWTQGTLSPHTPQWQVRTLKDARFQDHQDHALLLSTTDVPASESATVTSATFPAPIKSSPCELRMSWLIRGVLRGNVSLVLVENKTGKEQGRMVWHVAAYEGLSLWQWMVLPLLDVSDRFWLQMVAWWGQGSRAIVAFDNISISLDCYLTISGEDKILQNTAPKSRNLFERNPNKELKPGENSPRQTPIFDPTVHWLFTTCGASGPHGPTQAQCNNAYQNSNLSVEVGSEGPLKGIQIWKVPATDTYSISGYGAAGGKGGKNTMMRSHGVSVLGIFNLEKDDMLYILVGQQGEDACPSTNQLIQKVCIGENNVIEEEIRVNRSVHEWAGGGGGGGGATYVFKMKDGVPVPLIIAAGGGGRAYGAKTDTFHPERLENNSSVLGLNGNSGAAGGGGGWNDNTSLLWAGKSLQEGATGGHSCPQAMKKWGWETRGGFGGGGGGCSSGGGGGGYIGGNAASNNDPEMDGEDGVSFISPLGILYTPALKVMEGHGEVNIKHYLNCSHCEVDECHMDPESHKVICFCDHGTVLAEDGVSCIVSPTPEPHLPLSLILSVVTSALVAALVLAFSGIMIVYRRKHQELQAMQMELQSPEYKLSKLRTSTIMTDYNPNYCFAGKTSSISDLKEVPRKNITLIRGLGHGAFGEVYEGQVSGMPNDPSPLQVAVKTLPEVCSEQDELDFLMEALIISKFNHQNIVRCIGVSLQSLPRFILLELMAGGDLKSFLRETRPRPSQPSSLAMLDLLHVARDIACGCQYLEENHFIHRDIAARNCLLTCPGPGRVAKIGDFGMARDIYRASYYRKGGCAMLPVKWMPPEAFMEGIFTSKTDTWSFGVLLWEIFSLGYMPYPSKSNQEVLEFVTSGGRMDPPKNCPGPVYRIMTQCWQHQPEDRPNFAIILERIEYCTQDPDVINTALPIEYGPLVEEEEKVPVRPKDPEGVPPLLVSQQAKREEERSPAAPPPLPTTSSGKAAKKPTAAEISVRVPRGPAVEGGHVNMAFSQSNPPSELHKVHGSRNKPTSLWNPTYGSWFTEKPTKKNNPIAKKEPHDRGNLGLEGSCTVPPNVATGRLPGASLLLEPSSLTANMKEVPLFRLRHFPCGNVNYGYQQQGLPLEAATAPGAGHYEDTILKSKNSMNQPGP"}, "B2": {"name": "ZBTB4, Q9P1Z0 (protein)", "chain": "MPPPAEVTDPSHAPAVLRQLNEQRLRGLFCDVTLIAGDTKFPAHRSVLAASSPFFREALLTSAPLPLPPATGGAAPNPATTTAASSSSSSSSSSSSSSSSASSSSSSSSSSPPPASPPASSPPRVLELPGVPAAAFSDVLNFIYSARLALPGGGGDGAAVAEIGALGRRLGISRLQGLGEGGDAWVPPTPAPMATSQPEEDSFGPGPRPAGEWEGDRAEAQAPDLQCSLPRRPLPCPQCGKSFIHPKRLQTHEAQCRRGASTRGSTGLGAGGAGPGGPAGVDASALPPPVGFRGGPEHVVKVVGGHVLYVCAACERSYVTLSSLKRHSNVHSWRRKYPCRYCEKVFALAEYRTKHEVWHTGERRYQCIFCWETFVTYYNLKTHQRAFHGISPGLLASEKTPNGGYKPKLNTLKLYRLLPMRAAKRPYKTYSQGAPEAPLSPTLNTPAPVAMPASPPPGPPPAPEPGPPPSVITFAHPAPSVIVHGGSSSGGGGSGTASTGGSQAASVITYTAPPRPPKKREYPPPPPEPAATPTSPATAVSPATAAGPAMATTTEEAKGRNPRAGRTLTYTAKPVGGIGGGGGPPTGAGRGPSQLQAPPPLCQITVRIGEEAIVKRRISETDLRPGELSGEEMEESEEDEEEEDEEEEEEDEEESKAGGEDQLWRPYYSYKPKRKAGAAGGASVGGSGLPRGRRPPRWRQKLERRSWEETPAAESPAGRARTERRHRCGDCAQTFTTLRKLRKHQEAHGGGSHSSRAGRRPSTRFTCPHCAKVCKTAAALSRHGQRHAAERPGGTPTPVIAYSKGSAGTRPGDVKEEAPQEMQVSSSSGEAGGGSTAAEEASETASLQDPIISGGEEPPVVASGGSYVYPPVQEFPLALIGGGREPGGGRGKSGSEGPVGAGEGDRMEGIGAAKVTFYPEPYPLVYGPQLLAAYPYNFSNLAALPVALNMVLPDEKGAGALPFLPGVFGYAVNPQAAPPAPPTPPPPTLPPPIPPKGEGERAGVERTQKGDVG"}, "B3": {"name": "SMAD9, O15198 (protein)", "chain": "MHSTTPISSLFSFTSPAVKRLLGWKQGDEEEKWAEKAVDSLVKKLKKKKGAMDELERALSCPGQPSKCVTIPRSLDGRLQVSHRKGLPHVIYCRVWRWPDLQSHHELKPLECCEFPFGSKQKEVCINPYHYRRVETPVLPPVLVPRHSEYNPQLSLLAKFRSASLHSEPLMPHNATYPDSFQQPPCSALPPSPSHAFSQSPCTASYPHSPGSPSEPESPYQHSVDTPPLPYHATEASETQSGQPVDATADRHVVLSIPNGDFRPVCYEEPQHWCSVAYYELNNRVGETFQASSRSVLIDGFTDPSNNRNRFCLGLLSNVNRNSTIENTRRHIGKGVHLYYVGGEVYAECVSDSSIFVQSRNCNYQHGFHPATVCKIPSGCSLKVFNNQLFAQLLAQSVHHGFEVVYELTKMCTIRMSFVKGWGAEYHRQDVTSTPCWIEIHLHGPLQWLDKVLTQMGSPHNPISSVS"}, "B4": {"name": "RNF31, Q96EP0 (protein)", "chain": "MPGEEEERAFLVAREELASALRRDSGQAFSLEQLRPLLASSLPLAARYLQLDAARLVRCNAHGEPRNYLNTLSTALNILEKYGRNLLSPQRPRYWRGVKFNNPVFRSTVDAVQGGRDVLRLYGYTEEQPDGLSFPEGQEEPDEHQVATVTLEVLLLRTELSLLLQNTHPRQQALEQLLEDKVEDDMLQLSEFDPLLREIAPGPLTTPSVPGSTPGPCFLCGSAPGTLHCPSCKQALCPACDHLFHGHPSRAHHLRQTLPGVLQGTHLSPSLPASAQPRPQSTSLLALGDSSLSSPNPASAHLPWHCAACAMLNEPWAVLCVACDRPRGCKGLGLGTEGPQGTGGLEPDLARGRWACQSCTFENEAAAVLCSICERPRLAQPPSLVVDSRDAGICLQPLQQGDALLASAQSQVWYCIHCTFCNSSPGWVCVMCNRTSSPIPAQHAPRPYASSLEKGPPKPGPPRRLSAPLPSSCGDPEKQRQDKMREEGLQLVSMIREGEAAGACPEEIFSALQYSGTEVPLQWLRSELPYVLEMVAELAGQQDPGLGAFSCQEARRAWLDRHGNLDEAVEECVRTRRRKVQELQSLGFGPEEGSLQALFQHGGDVSRALTELQRQRLEPFRQRLWDSGPEPTPSWDGPDKQSLVRRLLAVYALPSWGRAELALSLLQETPRNYELGDVVEAVRHSQDRAFLRRLLAQECAVCGWALPHNRMQALTSCECTICPDCFRQHFTIALKEKHITDMVCPACGRPDLTDDTQLLSYFSTLDIQLRESLEPDAYALFHKKLTEGVLMRDPKFLWCAQCSFGFIYEREQLEATCPQCHQTFCVRCKRQWEEQHRGRSCEDFQNWKRMNDPEYQAQGLAMYLQENGIDCPKCKFSYALARGGCMHFHCTQCRHQFCSGCYNAFYAKNKCPEPNCRVKKSLHGHHPRDCLFYLRDWTALRLQKLLQDNNVMFNTEPPAGARAVPGGGCRVIEQKEVPNGLRDEACGKETPAGYAGLCQAHYKEYLVSLINAHSLDPATLYEVEELETATERYLHVRPQPLAGEDPPAYQARLLQKLTEEVPLGQSIPRRRK"}}, "note": "This is one part of the list. Binding of human transcription factors and regulators to the viral nucleoprotein by AlphaScreen, crude cell-free proteins, amounts not normalised, one pass. Fold of the Venus control; higher = more signal. No active / inactive call. Single-pass screen; sequences are the whole Swiss-Prot entries looked up by name.", "data": [{"target": "nucleoprotein N of Crimean-Congo hemorrhagic fever virus", "test": "AlphaScreen luminescence signal relative to Venus negative control (fold); higher = stronger binding to CCHFV N", "protocol": "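AlphaScreen binding of cell-free made, FLAG-GST-tagged human transcription factors and regulators (crude translation products) to biotinylated N protein; signal as fold of the FLAG-GST-Venus control. One pass.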", "values": [{"binder": "B1", "AlphaScreen luminescence signal": 3.35}, {"binder": "B2", "AlphaScreen luminescence signal": 6.56}, {"binder": "B3", "AlphaScreen luminescence signal": 1.95}, {"binder": "B4", "AlphaScreen luminescence signal": 2.19}]}]}
